Laboratory results from article PMC3398040.
Results are given in words; binding and its absence hold for the method and conditions named. Binding seen in cells or lysates may run through a third protein. Some entries that bind do so weakly or less than the wild type. Sequences can lack the tags named with a protein.

Experiments:
[1] = biological target: T1, HIS-tagged Ddi1 (^HISDdi1) (yeast) (UniProt P40087); assay: pull-down; HIS-Ddi1 on Ni beads incubated with GST-Ufo1 and/or GST-Rpn1 lysate together with yeast extract with ubiquitylated GFP-Ho (Figure 5A lanes 8-10); only the target purified
T1 sequence: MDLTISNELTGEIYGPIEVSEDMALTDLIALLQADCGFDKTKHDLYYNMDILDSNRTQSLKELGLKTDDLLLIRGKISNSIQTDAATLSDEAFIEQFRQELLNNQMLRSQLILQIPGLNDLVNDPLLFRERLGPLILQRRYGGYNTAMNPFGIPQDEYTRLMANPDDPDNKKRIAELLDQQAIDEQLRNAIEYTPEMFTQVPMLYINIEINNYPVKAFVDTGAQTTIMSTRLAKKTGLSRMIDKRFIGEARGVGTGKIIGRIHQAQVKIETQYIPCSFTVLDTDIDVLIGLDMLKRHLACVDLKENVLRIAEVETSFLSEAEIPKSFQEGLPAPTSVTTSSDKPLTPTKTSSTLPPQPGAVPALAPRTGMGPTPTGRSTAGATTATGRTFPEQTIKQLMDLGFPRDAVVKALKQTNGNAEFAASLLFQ

[2] = biological target: T2, GST-tagged full-length Ufo1 (^GSTFL-Ufo1) (yeast) (UniProt Q04511); assay: co-IP; bacterial lysates with HIS-Rpn1 and GST-Ufo1 mixed with yeast extract with myc-Cdc53 and GFP-Ho; aliquots immunoprecipitated with anti-myc, anti-GFP, anti-GST or anti-HIS and Protein A beads (Figure 4, + Ho)
T2 sequence: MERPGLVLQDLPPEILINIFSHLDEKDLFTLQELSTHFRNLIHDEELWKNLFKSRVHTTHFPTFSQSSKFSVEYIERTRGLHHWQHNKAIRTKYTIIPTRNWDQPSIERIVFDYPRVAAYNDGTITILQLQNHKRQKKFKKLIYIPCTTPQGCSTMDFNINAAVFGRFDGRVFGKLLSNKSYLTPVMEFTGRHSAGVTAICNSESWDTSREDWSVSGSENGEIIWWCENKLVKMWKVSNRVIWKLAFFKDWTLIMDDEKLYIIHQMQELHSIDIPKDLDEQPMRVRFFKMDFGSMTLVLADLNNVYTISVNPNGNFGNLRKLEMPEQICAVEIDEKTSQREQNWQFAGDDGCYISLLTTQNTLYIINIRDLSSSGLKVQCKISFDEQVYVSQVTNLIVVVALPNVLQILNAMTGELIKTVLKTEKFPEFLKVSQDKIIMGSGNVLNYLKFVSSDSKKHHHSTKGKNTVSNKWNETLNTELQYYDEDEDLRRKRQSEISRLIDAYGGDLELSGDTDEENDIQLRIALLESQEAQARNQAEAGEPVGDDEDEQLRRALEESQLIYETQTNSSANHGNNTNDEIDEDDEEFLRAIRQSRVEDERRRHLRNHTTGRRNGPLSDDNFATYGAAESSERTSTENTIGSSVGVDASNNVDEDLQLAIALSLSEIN

[3] = biological target: T3, myc-tagged Cdc53 (^mycCdc53) (S. cerevisiae) (UniProt Q12018); assay: as above
T3 sequence: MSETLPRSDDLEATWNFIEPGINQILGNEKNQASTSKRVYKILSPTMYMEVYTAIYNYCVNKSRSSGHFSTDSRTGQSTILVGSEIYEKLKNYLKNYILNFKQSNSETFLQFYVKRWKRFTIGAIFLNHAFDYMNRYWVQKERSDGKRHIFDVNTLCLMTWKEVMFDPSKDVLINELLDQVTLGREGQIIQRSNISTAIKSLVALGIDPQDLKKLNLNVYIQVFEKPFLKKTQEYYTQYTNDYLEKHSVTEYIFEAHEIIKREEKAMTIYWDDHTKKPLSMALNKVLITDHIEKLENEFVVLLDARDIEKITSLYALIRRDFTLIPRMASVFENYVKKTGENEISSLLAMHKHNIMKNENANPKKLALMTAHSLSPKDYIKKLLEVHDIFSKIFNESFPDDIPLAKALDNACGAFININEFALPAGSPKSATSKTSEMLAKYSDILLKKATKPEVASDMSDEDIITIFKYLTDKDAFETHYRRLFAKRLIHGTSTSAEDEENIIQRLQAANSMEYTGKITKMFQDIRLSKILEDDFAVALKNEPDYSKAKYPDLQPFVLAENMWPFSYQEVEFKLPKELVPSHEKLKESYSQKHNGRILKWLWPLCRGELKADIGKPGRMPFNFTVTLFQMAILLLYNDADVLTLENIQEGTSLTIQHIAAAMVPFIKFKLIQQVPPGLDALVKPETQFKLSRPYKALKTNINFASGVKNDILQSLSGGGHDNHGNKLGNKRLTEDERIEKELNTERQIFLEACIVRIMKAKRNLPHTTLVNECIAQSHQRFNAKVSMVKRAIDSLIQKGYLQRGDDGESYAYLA

Measured: binding

B1: GFP-tagged Ho endonuclease (^GFPHo) (enzyme, UniProt P09932 1-586)
chain: MLSENTTILMANGEIKDIANVTANSYVMCADGSAARVINVTQGYQKIYNIQQKTKHRAFEGEPGRLDPRRRTVYQRLALQCTAGHKLSVRVPTKPLLEKSGRNATKYKVRWRNLQQCQTLDGRIIIIPKNHHKTFPMTVEGEFAAKRFIEEMERSKGEYFNFDIEVRDLDYLDAQLRISSCIRFGPVLAGNGVLSKFLTGRSDLVTPAVKSMAWMLGLWLGDSTTKEPEISVDSLDPKLMESLRENAKIWGLYLTVCDDHVPLRAKHVRLHYGDGPDENRKTRNLRKNNPFWKAVTILKFKRDLDGEKQIPEFMYGEHIEVREAFLAGLIDSDGYVVKKGEGPESYKIAIQTVYSSIMDGIVHISRSLGMSATVTTRSAREEIIEGRKVQCQFTYDCNVAGGTTSQNVLSYCRSGHKTREVPPIIKREPVYFSFTDDFQGESTVYGLTIEGHKNFLLGNKIEVKSCRGCCVGEQLKISQKKNLKHCVACPRKGIKYFYKDWSGKNRVCARCYGRYKFSGHHCINCKYVPEAREVKKAKDKGEKLGITPEGLPVKGPECIKCGGILQFDAVRGPHKSCGNNAGARIC
modifications: ubiquitylated as produced in yeast (sites not given)
binds: all assays above
